Assay results taken from the supplement of paper PMC11417369.
Some of the results follow.

Test system: PfAP2-HC AP2 domain (GST-tagged)
Assay: gcPBM binding intensity (ln(normalized median fluorescence intensity)); higher = stronger DNA binding
Outline: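 Using an Agilent 4 × 180k array, primer-extended double-stranded 36-bp intergenic genomic probes and negative controls were exposed for 1 h to GST-fused P. falciparum DNA-binding domains expressed in E. coli. Binding was carried out in 1× PBS with 1% milk, 0.2 mg/ml BSA, 0.5% salmon testes DNA and 0.03% Triton X-100, and protein was detected with Alexa488 anti-GST antibody and a 488 nm scan. Binding intensity is the highest Masliner-normalised natural-log median intensity across replicate spots of either probe orientation.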

Sequence | gcPBM binding intensity (ln)
TATTTTAATTAATATACACACGCTTATATATATATA [CACACA_site7909] | 9.77
TTTCTTTTTTTTTTTTGTACATATTTTAATTATTTT [XGTACX_site8676] | 9.77
TATTATATATATAACTGTACGTTTATAATATAAAAA [XGTACX_site3778] | 9.47
TACAAACTATGATGCACACATATATATCTGTATCCA [CACACA_site4809] | 9.84
ATTATGTTATATACACGTACGTGTGCTTTATAATTA [XGTACX_site2728] | 10
ATAAAGTAGATATTTTGTACGCAGGTTGTATATATT [XGTACX_site1464] | 9.72
TACTTTACTAATATATATAGGAGAGTATACATGAAA [CACACA_negctrl_site63] | 9.55
GGAATTATAATAAATGGTACACATAAAAAAAAAAAA [XGTACX_site8343] | 9.73
CATATATAAATATGTATGCACTTTAACAAAATGTAT | 9.54
ATTCCACCTTAAAACTGTACTTTCTCAATCTTTTAT [XGTACX_site796] | 9.72
ATATTTATTTATATGTGTACTTATGTTTATATAAAA [XGTACX_site4250] | 9.51
ATATATACTTATATTTGTACACAAAGGTATCTCTAG [XGTACX_site3805] | 9.64
GGAATAATAAAATTATGTACATAAGAATCATATACT [XGTACX_site6810] | 9.84
AAATAATACCAAATGTGTACTTATTTCACTAATAGA [XGTACX_site7571] | 9.71
AATAATATATAATAATGTACAAAAAAAAAAAAAAAA [XGTACX_site4158] | 9.3
AAGCTTTGGTGTTATGCATGCAATTAAACTATTAGT [TGCATGCA_site277] | 9.53
TTTTATTTTTTAGTAGTACACACTTTTTGTACCTTT [CACACA_site599] | 9.85
AAAAAAAAAAATCGCTGTACTTCTAAAGGTGTGTTA [XGTACX_site843] | 9.74
CAAACAAACGGACACACACACACACCCAAAAATGAT [CACACA_site5363] | 10.6
AGTTTTATATAAGCTTGTACTTAATATTATTAAGTA [XGTACX_site5919] | 9.64
TTTGATAAATTATACACACACAATATATATAAAATA [CACACA_site2023] | 10
ACGGACTTAAAATACACACACACCAAAAAAAAAAAA [CACACA_site7304] | 10.2
TATATAAAACATGGGTGTACCAACATAAATCATATA [XGTACX_site2320] | 9.8

Sequence | gcPBM binding intensity (ln)
AATTGTGCATTATATTGTACACGTGTTGTATATATT [XGTACX_site975] | 9.82
TTGAATATGGTTACATGTACGTATCAATATTTTTTA [XGTACX_site4247] | 9.69
ATTTTGTTATGAAACACACACATATAAATATAAATA [CACACA_site7679] | 9.88
AATACACGCAGACACACACACAAAAAAAAAAAAAAA [CACACA_site6384] | 10.7
ATATATATATATAGTTGTACTTAATTTTATATGTTA [XGTACX_site5256] | 9.9
TATATTATTTATTAGACACACATTATTAAAATATTT [CACACA_site4737] | 9.7
TGTTGTATATCTCTATATAGCTATATTGTATATATA [TGCATGCA_negctrl_site323] | 9.79
GTGAAATTATTTCCGTGTACACATAAATATATATTT [XGTACX_site3989] | 9.74
CCTTGATATATATAAAGTACATATATATATATATAT [XGTACX_site4325] | 9.61
AAACTTATAAAAAGTAGTACCATAAAATAATACATA [XGTACX_site6523] | 9.7
TTTTACAAATATTACTGTACACATTTTCATATAATT [XGTACX_site17] | 9.83
ATTAACACATTTAAGTGTACATATATAAATATATAT [XGTACX_site7098] | 9.69
TATACATTATTATTATGTACTTAAATATATATTATA [XGTACX_site5173] | 9.58
ATATAACTCAAGGGCACACATATACCTTTCCTTTTT [CACACA_site4390] | 9.85
GGAACGTATATTTTCACACACTCTCAAAAGTACAAG [CACACA_site2301] | 9.77
GAAACAAAATTATTTTGTACATATGACTGTAGATAT [XGTACX_site972] | 9.7
TGTGCACGTTCTGTGACACACATTTAAATGTGCTTA [CACACA_site176] | 9.79
AATATGTGAATATAATCACACACAATACGGAAACAC [CACACA_site8875] | 10.7
AAAGAAGGATAATAATGTACAAGCAAAAAAATAAAA [XGTACX_site466] | 9.84
AAATAATTATTTATCACACATATGTATTTATATATA [CACACA_site4589] | 9.68
CTTTTTTTAATGATAACACACATGTTGTGCATAGAC [CACACA_site3270] | 9.72
TTAGTTTCCCAAATATGTACATAAATATAAATCATA [XGTACX_site2746] | 9.54
TTATTATTTTTTAACACACACATATATATTATATCT [CACACA_site4906] | 9.97

Sequence | gcPBM binding intensity (ln)
GTAAGAACACTTTTGTGGTTACTTAAAAGTGTATAT [GTGCAC_negctrl_site422] | 9.57
ATTTCAACAAATATAACACACAATGGATAAGAATAA [CACACA_site1974] | 9.82
TGCTTATATGTTGTTACACACTAAAATAGTTAGATA [CACACA_site1277] | 9.67
AATACAGTTAGAGAAAGTACACAACTAATATACATA [XGTACX_site8814] | 9.78
ACATATATTTCAAAGTGTACGCACAATTTTTTTTAC [XGTACX_site6166] | 9.74
AACATATATATAATATGTACATAATATATATAAATG [XGTACX_site1161] | 9.75
TATTTTTTAAAAAAATGTCATAAAATTTCTTTTTTC [XGTACX_negctrl_site271] | 9.28
ATATACAAAGGATTAACACACATATTATTATATATA [CACACA_site1880] | 9.83
AGAAAAAAATAATGTACACACACATATATGTTTATA [CACACA_site7946] | 9.95
GTAATTTTATATGGTTGTACATATATATATATATAT [XGTACX_site6659] | 9.84
ATATATATATATATATATATTTATATGTGAAAACCC [CACACA_negctrl_site845] | 9.93
TTATACCTGATTTAGGTGCTATAAATTTGTGTTTTT | 9.74
ATATATATATATATGTGTACTTATATATTTAAAAAA [XGTACX_site1761] | 9.59
CGCATAAAGACAAGAACACACATATATATTGTAGTA [CACACA_site5938] | 10
CAACAACAAAAAAAAAAATAATAATAATAAAAAATA [TGCATGCA_negctrl_site271] | 9.5
TTCCTATTTCCTATGTGTACTTATAAATAAGTGTCT [XGTACX_site3725] | 9.73
GAAATTATAAATTGGACACACACATAAAAAATATGT [CACACA_site7957] | 10.1
TCCGCATGTACATGGGTGCACATAACACCCATTTAA [GTGCAC_site9881] | 9.45
TAAATGTCTGTTAATGCACACGATATGTCTATATAT [CACACA_site2352] | 9.88
CTTTCTATATAAAATCGTACATATATAATATTATAT [XGTACX_site5807] | 9.67
TATATTAAGAAACACACACACATATATATATATATA [CACACA_site1609] | 10
CTAACACTAATTTTTTGTACACAATATGTAAATAAA [XGTACX_site6424] | 9.57
ATTTTTACATAGGAAGCATGCATATTTTAAAAATAA [TGCATGCA_site1046] | 9.51

Sequence | gcPBM binding intensity (ln)
TTATTTCTGAATATTTTTTTTTTTTCTTCTTTTTTA [CACACA_negctrl_site815] | 9.45
CATGTGTTCTATATTTATGTCTAACTTTTTAATTAA [CACACA_negctrl_site904] | 9.72
TAATTTTTTAAATTTAAACACACATTTTGTATATGT [CACACA_site8479] | 9.99
TGATACGTATTTATTTCACACACGTTAAAAAAATAA [CACACA_site3914] | 9.65
TATATATATATATATTGTACGAACCTTTTTTTTTTT [XGTACX_site4169] | 9.37
TATAAATTTTTATTTACATGCAGTTATTATTTCCAT [TGCATGCA_site41] | 9.8
TATTAAAAGGTTAAAGCATGCATACATATATATGTT [TGCATGCA_site865] | 9.61
TTTTTGTTACCTATTGTGCACTTCATATAAATTAAA | 9.74
AATAATAAATAAAAATGTACACATACATTTCTATCC [XGTACX_site7057] | 9.68
ATATATATATATATATGTACATATTTATATTGTAAA [XGTACX_site8878] | 9.71
TAATGTAATACATATTGTACACATACATATATATTT [XGTACX_site7531] | 9.57
ATATATAATCATCACACATGCAGCCCTGATGAAAAA [TGCATGCA_site687] | 9.76
GGGTATACCAATATAACACACATATATCTATAATAT [CACACA_site6348] | 9.85
AGAAAGTAAAGCTGTTGTACTATTATATATATTTTA [XGTACX_site8090] | 9.67
GTAATACCCAAACACACACACATACCCATATATATA [CACACA_site5510] | 10.7
TATAATATGTATATCTGTACATATTTTAAATCTAAT [XGTACX_site2426] | 9.5
AAGTACAATTCATGTATGCACTTTATTATATTTTAT | 9.74
AAGATAAAATAATAAAGTACACATATAAATTGAAAA [XGTACX_site2113] | 9.73
TTTCTTTTTAAATAATAATGTATAATAAAAAGTTCA [TGCATGCA_negctrl_site195] | 9.15
TTTGTTTGATATATGTGTACATATATATATTATGCT [XGTACX_site3522] | 9.78
